Test results from the supplement of paper PMC10126150.
Values marked as one replicate rest on one cluster of the flow cell; about a third of the high ones do not repeat.

System: ATP
Experiment: switch fluorescence ratio, 500 uM ATP over buffer (Cy3 cluster intensity, sum of 5 cycles each) (fold (ratio)); higher = stronger signal-on switching upon ATP binding; sequences stand for … in TCGTCGGCAGCGTCAGATGTGTATAAGAGACAGTTTTTTTTTTTTTTTTTTTTTTTTT…TC
Details: aptamer strand: ATP DNA aptamer (quencher-CACCTGGGGGAGTATTGCGGAGGAAGG + anchor), 100 nM annealed; ATP concentration: 500 uM; one replicate
In short: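 Imaging in selection buffer was followed by imaging after 15 min with 500 uM ATP at 22 °C, for Cy3-labelled switching-strand clusters annealed to 100 nM quencher-labelled ATP aptamer on a modified Illumina MiSeq flow-cell. Five of these buffer/ATP cycles ran, separated by NaOH stripping and re-annealing. The fluorescence ratio per cluster is summed target-cycle over summed buffer-cycle Cy3 intensity, averaged per switch-domain sequence; clusters outside 100-1000 RFU were removed.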
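Also: ATP exposure 15 min at 22 °C before imaging.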

| Sequence | switch fluorescence ratio |
| --- | --- |
| GCTGGCGGGA | 0.925 |
| CATGAAGCAG | 1.13 |
| GACGGGGGAC | 1.53 |
| TTAAACCAAG | 1.12 |
| GGTCTTGTCG | 0.927 |
| ACGATTACGC | 1.19 |
| TTTTCAAGCA | 1.07 |
| TCGTAATCT | 1.08 |
| ACTTAACGTG | 1.06 |
| ACTTCACAGT | 1.31 |
| TGCAACTCGG | 1.03 |
| GTTTTTCAAA | 1.04 |
| GGTCGTCGAG | 0.929 |
| AGGGAGACTC | 0.985 |
| GCCCCATAAA | 0.993 |
| CAATGGCGCC | 0.933 |
| TGGGGTCGTT | 0.968 |
| CTTCGTTCGC | 3.84 |
| GGACCAGGAA | 1 |
| TTGGCTCAAA | 1.02 |
| TATAATGAAT | 0.999 |
| AGACGTCGGA | 0.955 |
| GCGTTAGCCG | 1.08 |

| Sequence | switch fluorescence ratio |
| --- | --- |
| ATGTTAGTCA | 1.01 |
| AGTCCAGATG | 1.05 |
| TGGCGCGATA | 1.02 |
| TAAATGAGTT | 0.993 |
| TCGCTTGGAT | 0.986 |
| ACGGGTAGCT | 1.02 |
| GGGAATGT | 0.981 |
| TTAGCAAAAT | 1.39 |
| ATTTGCGTAT | 1.03 |
| ACTTCTCCAC | 1.31 |
| TCGTTTTGAA | 1.06 |
| TAGGGGACAT | 0.962 |
| CCACGTTTCC | 1.24 |
| CAGCCCCAAG | 1.05 |
| GCAATGGCCG | 0.971 |
| AATCCATTCC | 1.55 |
| GCTAGTTAGC | 0.998 |
| CCGTTCCTTA | 1.02 |
| ACAATCGCAA | 2.18 |
| CCCCCCTTTC | 1.22 |
| TACTGTAGAT | 1.12 |
| TTTGATATCT | 0.993 |
| GAGCTAGACT | 1.5 |

| Sequence | switch fluorescence ratio |
| --- | --- |
| TTTGTAAT | 0.987 |
| AATCCGGTT | 1.02 |
| ACAAACGAAT | 1.25 |
| ACCCAGCCTG | 1.04 |
| GAATTTTTCT | 1.01 |
| AATGGAAGTG | 0.945 |
| CAACTGTAG | 0.954 |
| CAGAGGATGG | 1 |
| ACAAGTGCTA | 1.01 |
| ACTTGCCAGG | 1.88 |
| TCCAGGAACT | 1.03 |
| GCGGCGAAGG | 1 |
| CCGGTGCAC | 1.87 |
| TCGTTAGCGA | 1.02 |
| TTGACGGTG | 0.997 |
| ATTCAGTTGT | 0.967 |
| TACCACGACA | 1.21 |
| TGCAATAGCG | 1.1 |
| TATAACCGCA | 1.5 |
| ATGCCAGTGT | 1.09 |
| AGGGATACAT | 1.06 |
| TCGGGAAACG | 0.992 |
| TCGTCCATT | 0.965 |

| Sequence | switch fluorescence ratio |
| --- | --- |
| TTGTTGGAC | 1 |
| CGATTTAGGT | 1.01 |
| CTTGCTTGG | 0.956 |
| AGATACATGG | 1.01 |
| ATCCCGTTTA | 0.941 |
| AAATGTAGTT | 1 |
| TCCTGTAGTG | 0.983 |
| GTGGGTCAAA | 0.98 |
| TCAACCAGTT | 1.02 |
| TTCGGTCC | 0.961 |
| CAATACATT | 1.01 |
| GAGTGAGTG | 0.968 |
| CTATCGTCAT | 1.04 |
| ATGGGAATAG | 1 |
| TCTGCATAGT | 1.13 |
| ATGAAATTGC | 0.983 |
| TCTCCTATAT | 1.69 |
| TATTATTAGA | 0.962 |
| TCCTTGTTGG | 0.973 |
| CTGAGATGCC | 0.973 |
| CACGAGAGTG | 1.02 |
| AAACTGTTGG | 0.963 |
| TGGACATTGA | 0.991 |

| Sequence | switch fluorescence ratio |
| --- | --- |
| ACTGTGACG | 1.05 |
| CTGATTAGT | 1.01 |
| TGCCGCATTC | 1.51 |
| GGGCTTACAA | 0.985 |
| GCCTTAGTGT | 0.99 |
| GGTCTTGGAA | 0.981 |
| CCGCAGCCCA | 5.64 |
| CCACGTCCA | 1.1 |
| GATATTAGG | 1.01 |
| AAGCGTCCAT | 1.01 |
| AGTCGAAGTA | 0.977 |
| AGGTTTGAAG | 1.01 |
| ATGATGTCAA | 0.935 |
| CCTCGCCAAG | 3.59 |
| GCACGAGCCT | 1.12 |
| CTTAAGGGGT | 0.95 |
| AAACCGGCCT | 1.67 |
| TCCCGAGTTG | 1.03 |
| TCATCGGTA | 1.07 |
| GGGGAAGAGC | 1.04 |
| GCCCTTACCT | 1.17 |
| CGGCAATGCG | 0.985 |
| CGAAATGGGG | 0.945 |

| Sequence | switch fluorescence ratio |
| --- | --- |
| GGAAAAAGAG | 1.03 |
| CATATCCGCT | 1.11 |
| TGATTAGGAT | 0.94 |
| ACTAAGGTGA | 1.19 |
| GTTGTCCCTT | 0.999 |
| TGCGTAGTCA | 0.971 |
| ACTCTCGGCT | 1.07 |
| CGGCACGTTC | 1.03 |
| ATTGGCCCTT | 0.958 |
| GTATGATCAG | 1 |
| GCGTTTGAT | 1.02 |
| TCTGAGGCGT | 1.03 |
| ATCTGCACGA | 1.04 |
| CGTATGCATT | 0.993 |
| TGACACATTG | 1 |
| TGTGGGCGGT | 1.3 |
| AACGGTCATC | 1.01 |
| TGGGCTGATG | 0.955 |
| AATACGCCGG | 0.97 |
| CATTAAATGT | 1.01 |
| AAGTGTAACT | 1.01 |
| ATCTTGGCTC | 1.05 |
| ACTCAACACC | 1.22 |

| Sequence | switch fluorescence ratio |
| --- | --- |
| CTTGTGCGCA | 0.989 |
| AGTTCTTTCT | 1.02 |
| TTCGATCGGT | 0.992 |
| ATGCAGAGTC | 0.978 |
| CCGGCTCTGT | 1.04 |
| AAAGGCGTTC | 1.02 |
| AGCTTTTGGA | 1.01 |
| AGCCATGAGA | 1 |
| GAGTCAGGGA | 1.01 |
| CGCGGTGAAT | 1.01 |
| TCAGTGTAAT | 1.01 |
| CAGGTCTAGT | 0.992 |
| TTGTCCGGCG | 0.971 |
| CTGAGGCGG | 1.11 |
| ATTTATTGTC | 0.945 |
| TGCAGAGTGG | 1.05 |
| GATAAATATT | 1.01 |
| CGGCACACTT | 0.973 |
| CGCTTCC | 2.15 |
| ACCGCGAATG | 1.31 |
